Results as given in PubChem BioAssay AID360 (National Center for Advancing Translational Sciences (NCATS), 2006).
Out of some 48,000 compounds screened, about 550 (1.1%) were called active. Another 4% or so got no clear call; they are omitted. Cut-off read from the data, not from the text of the source: active = potency below about 15 µM; inconclusive = mostly about 16 µM to 33 µM; inactive = weaker than that. The list shows a part of the results.

biological target: Lysosomal acid glucosylceramidase (Homo sapiens) (UniProt P04062); experiment: Glucocerebrosidase; details: purified enzyme, resorufin glucoside fluorescence (screen aimed at inhibitors), 20 min; series mostly up to 77 µM;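 note: the screen sought inhibitors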
UniProt P04062, sequence (P04062 whole entry, looked up): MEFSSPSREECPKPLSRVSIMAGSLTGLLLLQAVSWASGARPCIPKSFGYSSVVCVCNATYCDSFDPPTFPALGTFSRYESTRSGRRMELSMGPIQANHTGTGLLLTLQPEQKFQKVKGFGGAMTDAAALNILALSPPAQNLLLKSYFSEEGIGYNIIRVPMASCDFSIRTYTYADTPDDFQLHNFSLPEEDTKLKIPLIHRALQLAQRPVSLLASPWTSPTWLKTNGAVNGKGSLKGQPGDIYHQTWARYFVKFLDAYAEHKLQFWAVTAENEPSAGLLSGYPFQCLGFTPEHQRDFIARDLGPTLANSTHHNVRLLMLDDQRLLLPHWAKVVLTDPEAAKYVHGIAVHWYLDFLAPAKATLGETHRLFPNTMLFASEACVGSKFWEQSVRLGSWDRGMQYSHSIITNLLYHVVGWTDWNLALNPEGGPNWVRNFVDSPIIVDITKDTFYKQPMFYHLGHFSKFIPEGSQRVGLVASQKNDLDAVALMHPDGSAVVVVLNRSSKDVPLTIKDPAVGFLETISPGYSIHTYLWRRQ
How it was run: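 Compounds titrated against 0.2 nM normal enzyme, 30 uM resorufin beta-D-glucopyranoside substrate, citrate/phosphate buffer with taurocholate and tween-20, pH 5.9. Reaction ran 20 min at room temperature; fluorescence (Ex 548/Em 600) gave AC50.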
Potency is the fitted concentration of half-maximal effect.

Structure (SMILES) | Potency
CC(=O)Oc1cc2oc(=O)c3c(c2cc1Cl)CCC3 | inactive: > 76.9 µM
CCC(=O)N1c2ccccc2NC2=C(C(=O)CCC2)C1c1cccnc1 (stereo not given) | inactive: > 76.9 µM
Cc1cc(C)nc(N2CCC(C(=O)Nc3nnc(C)s3)CC2)n1 | active: 3.03 µM
COc1cccc2cc(C(=O)N3CCc4ccccc43)c(=O)oc12 | inactive: > 76.9 µM
CC1(C)C(=O)Nc2ccccc2N1C(=O)COC(=O)Cn1cnc2ccccc2c1=O | inactive: > 76.9 µM
Cc1ccc(NC2c3ncccc3C(=O)N2Cc2ccc(F)cc2)cc1 (stereo not given) | inactive: > 76.9 µM
Cc1ccc(C2CC(=O)Nc3cc4c(cc32)OCCO4)s1 (stereo not given) | inactive: > 76.9 µM
COc1ccc(C2C=C(c3ccc(Br)cc3)Nc3nc(N4C(=O)CCC4=O)nn32)cc1 (stereo not given) | inactive: > 76.9 µM
CCCCN1C(=O)C(NC(C)=O)c2ccccc21 (stereo not given) | inactive: > 76.9 µM
COC(=O)c1ccc(Cn2cnc3c(cnn3-c3ccc(F)cc3)c2=O)o1 | inactive: > 76.9 µM
CCSc1nnc(NC(=O)c2cc(C)on2)s1 | inactive: > 76.9 µM
O=C(NCc1ccccc1)N(Cc1nc2ccccc2c(=O)[nH]1)C1CCCC1 | inactive: > 76.9 µM
COC(=O)c1sc(NC(=O)CSc2nnnn2-c2ccc(C)cc2C)nc1C | inactive: > 76.9 µM
CCCCCn1c(Sc2ncccn2)nc2c1c(=O)[nH]c(=O)n2C | inactive: > 76.9 µM
COc1ccc(N2CCN(C(c3ccccc3OC)c3nnnn3Cc3ccco3)CC2)cc1 (stereo not given) | inactive: > 76.9 µM
COc1cc(OC)c2c(C)cc(=O)oc2c1 | inactive: > 76.9 µM
CC1CC(C)CN(c2oc(-c3ccco3)nc2C#N)C1 (stereo not given) | inactive: > 76.9 µM
Cc1ccc(Cn2nnc3c(=O)[nH]c(C(=O)NCc4ccco4)nc32)cc1 | inactive: > 76.9 µM
Cc1cc(C)nc(-n2nc(C)cc2NC(=O)c2ccc(Br)o2)n1 | inactive: > 76.9 µM
C=CCn1c(NCc2ccc(N(C)C)cc2)nc2ccccc21 | inactive: > 76.9 µM
OCCN1CCN(CC(O)COc2ccc3ccccc3c2)CC1 (stereo not given) | inactive: > 76.9 µM
CCOc1ccccc1C(=O)NC1CC2CCCC(C1)N2C1CC1 (stereo not given) | inactive: > 76.9 µM
CCC12CN3CC(CC)(CN(C1)C3c1ccc(OC(C)C)cc1)C2=O (stereo not given) | active: 4.26 µM

Structure (SMILES) | Potency
O=C(O)CC(c1ccccc1)c1ccccc1 | inactive: > 76.9 µM
COc1cc(CCC(=O)OCn2nnc3ccccc3c2=O)cc(OC)c1OC | inactive
Clc1ccc(Cl)c(-c2nn3c(Cn4cnc5ccccc54)nnc3s2)c1 | inactive: > 76.9 µM
Cc1cc(C)c2c(N=CN(C)C)c(C(=O)N3CCN(c4ncccn4)CC3)sc2n1 | inactive: > 76.9 µM
c1ccc(Cc2nn3c(-c4ccncc4)nnc3s2)cc1 | inactive: > 76.9 µM
CCn1c(CSc2nc(C)cc(C)n2)nnc1SCC(=O)Nc1ccccc1 | inactive: > 76.9 µM
S=C(c1ccc(N2CCOCC2)cc1)N1CCCCC1 | inactive: > 76.9 µM
Cn1c(=O)c2c(-c3ccccc3)n(N3CCOCC3)cc2n(C)c1=O | inactive: > 76.9 µM
COC(=O)c1ccccc1NC(=O)C1CCN(S(=O)(=O)c2cc(C)ccc2OC)CC1 | inactive: > 76.9 µM
CN(C(=O)c1ccc(NC(=O)C2CC=CCC2C(=O)O)cc1)c1ccccc1 (stereo not given) | inactive: > 76.9 µM
CCOC(=O)N1CCC(NC(=O)c2cccnc2SC)CC1 | inactive: > 76.9 µM
CCOC(=O)N1CCN(CC(=O)Nc2c(C(=O)OC)[nH]c3cccc(Cl)c23)CC1 | inactive: > 76.9 µM
Nc1nonc1C(=Nc1ccccc1)NO | inactive: > 76.9 µM
CN(C)S(=O)(=O)NC(c1ccccc1)c1ccccc1 | inactive: > 76.9 µM
O=C(N1CCCCC1)N1CCCN(C(=O)N2CCCCC2)CC1 | inactive: > 76.9 µM
CCn1c(COc2ccc3c(c2)CCCC3)nnc1SCC(=O)Nc1nccs1 | inactive: > 76.9 µM
CC(C)(C)c1ccc(OCC(=O)O)cc1 | inactive: > 76.9 µM
CCOC(=O)N1CCC(NC(=O)c2sc(-n3cccc3)nc2C)CC1 | inactive: > 76.9 µM
COc1cccc(C2=CC(c3cccc(OC)c3OC(F)F)n3nnnc3N2)c1 (stereo not given) | inactive: > 76.9 µM
O=C(C1CC1)N1CCc2cc(S(=O)(=O)N(CCO)Cc3ccccc3)ccc21 | inactive: > 76.9 µM
COc1ccc(CNC(=O)COC(=O)c2n[nH]c3ccccc23)cc1 | inactive: > 76.9 µM
COCC(C)NC(=O)c1noc2c1CCc1cc(OC)ccc1-2 (stereo not given) | inactive: > 76.9 µM
CCCOC(=O)Cc1n[nH]c(=O)[nH]c1=O | inactive: > 76.9 µM

Structure (SMILES) | Potency
CCC(C)(C)NC(=O)C(c1cccn1C)N(Cc1ccccc1)C(=O)Cn1nnc2ccccc21 (stereo not given) | inactive: > 76.9 µM
CCOC(=O)c1nn(-c2ccccc2)c(C#N)c1NC(=O)c1nn(CC)cc1Br | inactive: > 76.9 µM
O=C(CN1CCOCC1)N1CCN(C(=O)CN2CCOCC2)CC1 | inactive: > 76.9 µM
Cc1cc(C)c(C(=O)CSc2nnc(-c3ccccc3Br)o2)cc1C | inactive: > 76.9 µM
CCc1nnc(NC(=O)CSc2nnc(COc3ccccc3)n2-c2ccc(C)cc2)s1 | inactive: > 76.9 µM
Cc1ccc2nc(SCC(=O)Nc3c(C)n(C)n(-c4ccccc4)c3=O)[nH]c2c1 | inactive: > 76.9 µM
CCOC(=O)N1CCC(N(C(=O)Nc2ccc(Cl)c(Cl)c2)C(C)CC)CC1 (stereo not given) | inactive: > 76.9 µM
CCc1ccc2[nH]c(=O)c(CN(CCO)C(=O)NCc3ccccc3)cc2c1 | inactive: > 76.9 µM
O=C(Cn1nnc(-c2ccccc2F)n1)Nc1ccc(C(=O)N2CCOCC2)cc1 | inactive: > 76.9 µM
CCOc1ccccc1N(CC(=O)NC(C)(C)C)C(=O)c1ccc(CN2CCOCC2)o1 | inactive: > 76.9 µM
CCc1ccc(N2CC(C(=O)NCc3ccc4c(c3)OCO4)CC2=O)cc1 (stereo not given) | inactive: > 76.9 µM
COc1ccc(-c2cc(C(=O)NC(C)C)no2)cc1 | inactive: > 76.9 µM
CS(=O)(=O)c1ccc(Cl)c(S(=O)(=O)NCc2ccccc2)c1 | inactive: > 76.9 µM
CCOC(=O)N1C(=O)c2cc(OC)ccc2S1(=O)=O | inactive: > 76.9 µM
CCOCCn1c(N(C)Cc2ccccc2)nc2c1c(=O)[nH]c(=O)n2C | inactive: > 76.9 µM
COc1ccc(NC(=O)CCc2ccccc2)cc1NC(=O)c1ccco1 | inactive: > 76.9 µM
Cc1nn(CC(=O)Nc2ccccn2)c(=O)c2ccccc12 | inactive: > 76.9 µM
CCCN1C(=O)NC2(O)C(=O)c3ccccc3C12O (stereo not given) | inactive: > 76.9 µM
COc1ccc(C2NCCC3(O)CCCCC23)c(OC)c1OC (stereo not given) | inactive: > 76.9 µM
COc1ccc(N2CCN(C(=O)CCNS(=O)(=O)c3ccc4c(c3)CCC(=O)N4)CC2)cc1 | inactive: > 76.9 µM
CCC(C)(C(=O)Nc1ccc2c(c1)OCCO2)N(C(C)=O)c1ccc(C(N)=O)cc1 (stereo not given) | inactive: > 76.9 µM
COc1ccc(S(=O)(=O)N(C)CC(=O)NC2CC2)cc1 | inactive: > 76.9 µM
Cc1nnc(Oc2ccccc2)c2ccccc12 | inactive: > 76.9 µM

Structure (SMILES) | Potency
COC(=O)c1cccc(NC(=O)CSc2nnc(COc3ccc(C#N)cc3)n2-c2ccccc2)c1 | inactive: > 15.4 µM
c1cncc(-c2nnc(SCc3nc4ccccc4[nH]3)o2)c1 | inactive: > 76.9 µM
CCCn1nnc(NC(=O)c2ccc(-c3ccccc3)cc2)n1 | inactive: > 76.9 µM
COC(=O)c1cccc(NC(=O)CN(c2ccc3c(c2)OCO3)S(C)(=O)=O)c1C | inactive: > 76.9 µM
CCN(CC)S(=O)(=O)c1cccc(-c2nnc(SCC(=O)c3ccc(Cl)s3)n2C)c1 | inactive: > 76.9 µM
CN1C=CC=C/C1=C(\C#N)c1nc2ccccc2[nH]1 | inactive: > 76.9 µM
COC(=O)C1=C(C)N(c2cccc(C(C)=O)c2)C(=O)C1 | inactive: > 76.9 µM
O=C(NCC1CCCO1)c1csc2c1CCCCC2 (stereo not given) | inactive: > 76.9 µM
CC1(C)Oc2ccc(C(=O)N3CCc4ccccc43)cc2N(CC(=O)N2CCCC2)C1=O | inactive: > 76.9 µM
Cc1cc(C(=O)NCCCc2ccccc2)no1 | inactive: > 76.9 µM
COc1ccc2[nH]c(=O)c(CN(Cc3nnnn3Cc3ccc(F)cc3)CC3CCCO3)cc2c1 (stereo not given) | inactive: > 76.9 µM
CCOC(=O)C1CCN(C(=O)CCn2c(=O)[nH]c3ccccc3c2=O)CC1 | inactive: > 76.9 µM
CN1CCN(C(=O)c2ccc3c(c2)NC(=O)C(N2CCOCC2)S3)CC1 (stereo not given) | inactive: > 76.9 µM
O=S(=O)(c1cccc(-n2cnnn2)c1)N1CCOCC1 | inactive: > 76.9 µM
O=S(=O)(c1ccc(F)cc1)N1CCC(N2CCN(c3ccccc3)CC2)CC1 | inactive: > 76.9 µM
COc1ccc2cc(C(c3nnnn3CCc3ccccc3)N3CCC(O)CC3)c(=O)[nH]c2c1 (stereo not given) | inactive
COC(=O)c1ccc2[nH]c(C)cc(=O)c2c1 | inactive: > 76.9 µM
COC(=O)c1c(C)n(-c2ccc(OC)cc2)c2ccc(O)cc12 | inactive: > 76.9 µM
Cc1cccc2cc(CN(CCCO)C(=O)Nc3ccccc3Cl)c(=O)[nH]c12 | inactive: > 76.9 µM
COc1ccc(CC(=O)OCn2nnc3ccccc3c2=O)cc1 | inactive: > 76.9 µM
COc1ccc(OC)c(NC(=O)CSc2nnc(Cc3cccn3C)n2CCc2ccccc2)c1 | inactive: > 76.9 µM
